Reference: PubChem BioAssay AID1476 (National Center for Advancing Translational Sciences (NCATS), 2009)
Among all 200,000 compounds or so, about 4,500 (2.2%) were called active. Inconclusive means that the source gave no clear call. Such entries were picked first, then a sample of the others. Calls follow the shape of the dose curve; as a rule, active = well fitted inhibition curve with a large enough effect; inconclusive = small, poorly fitted or top-dose-only effect, or effect the other way; inactive = flat fitted curve, though single readings scatter. Potencies beside an inconclusive call are fits to weak or partial responses and may not hold up.

Biological target: Cruzipain (Trypanosoma cruzi) (UniProt P25779)
Test: qHTS Assay for Promiscuous and Specific Inhibitors of Cruzain (without detergent); also: nearly all actives have a fitted effect of over 40% in size;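 as to max response, negative = inhibition: plate controls were enzyme without inhibitor for no effect and buffer without enzyme for full effect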
Settings: purified cruzain, Z-FR-AMC fluorescence, no detergent
How it was run: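 Purified cruzain at 1.5 nM, pre-incubated 15 min with compound at room temperature in 100 mM sodium acetate pH 5.5, 5 mM DTT, 0.00005% Triton X-100. Reaction started with 2 uM Z-FR-AMC; AMC fluorescence increase over 60 s gives rate.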
Potency is read from the fitted curve at half-maximal effect; tags tell the direction and shape of the fitted curve.

Sequence of UniProt P25779 (P25779 whole entry, looked up): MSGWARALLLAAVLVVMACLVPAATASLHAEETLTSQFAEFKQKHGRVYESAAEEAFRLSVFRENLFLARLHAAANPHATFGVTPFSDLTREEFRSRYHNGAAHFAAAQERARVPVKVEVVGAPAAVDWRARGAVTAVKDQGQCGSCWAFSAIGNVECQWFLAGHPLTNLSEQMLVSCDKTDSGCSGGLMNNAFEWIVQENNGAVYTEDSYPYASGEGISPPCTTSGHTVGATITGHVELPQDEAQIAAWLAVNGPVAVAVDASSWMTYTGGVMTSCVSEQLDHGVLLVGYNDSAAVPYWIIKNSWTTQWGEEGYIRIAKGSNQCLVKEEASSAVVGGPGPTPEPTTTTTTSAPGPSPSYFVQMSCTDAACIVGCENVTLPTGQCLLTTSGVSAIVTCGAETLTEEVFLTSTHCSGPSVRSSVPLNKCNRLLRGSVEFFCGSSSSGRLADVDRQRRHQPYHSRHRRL

Row | Compound | max response, negative = inhibition | Potency
1 | O=C(NCCC1=CCCCC1)c1ccc2c(c1)ncn2-c1ccc(F)c(F)c1 | inactive: 5.47% | 
2 | Cn1c(=O)c2c(nc(CN3CCN(C(=O)c4ccco4)CC3)n2CCCc2ccccc2)n(C)c1=O |  | inconclusive: 31.6 µM [activator, single point]
3 | Cc1ccc(-n2nnnc2CNC(=O)C(C)C)cc1C | inactive: -12.2% | 
4 | CC(=O)c1cccc(NC(c2ccc(F)cc2)c2nnc(-c3ccccc3)o2)c1 (configuration not stated) | inactive: -2.01% | 
5 | Cc1nnc(SCC(=O)Nc2nnc(SCc3cccc(Br)c3)s2)s1 |  | inconclusive: 39.8 µM [inhibitor, single point]
6 | CCN1CCN(C(c2cccc(F)c2)c2c(O)cc(C)n(Cc3ccco3)c2=O)CC1 (configuration not stated) |  | inconclusive: 39.8 µM [inhibitor, single point]
7 | COc1cc(C(=O)N[C@H](C(=O)NC(C)C23CC4CC(CC(C4)C2)C3)C(C)C)cc(OC)c1OC (some centres not stated) |  | inconclusive: 39.8 µM [activator, single point]
8 | COC(=O)c1cc2oc3ccccc3c2n1Cc1cc(C)ccc1C | inactive: 5.32% | 
9 | O=c1c(N2CCN(c3cccc(C(F)(F)F)c3)CC2)csc2ccc(Cl)cc12 | inactive: 5.54% | 
10 | O=C(N/N=C/C=C/c1ccccc1)c1ccc(Br)cc1 |  | active: 20 µM
11 | Cc1cc(C)nc(SCC(=O)Nc2nc(-c3ccccc3)c(-c3ccccc3)o2)n1 |  | inconclusive: 39.8 µM [activator, single point]
12 | COc1ccc(OC)c(CCNC(=O)c2cnn(-c3ccccc3)c2C2CCN(C(=O)OC(C)(C)C)CC2)c1 |  | inconclusive: 25.1 µM [activator, single point]
13 | Cc1cccc(C)c1Nc1c(-c2ccsc2)nc2ccc(Cl)cn12 |  | inconclusive: 39.8 µM [inhibitor, single point]
14 | Cc1ccc(OCc2nnc(NC(=O)OCC(C)C)s2)cc1 |  | active: 20 µM
15 | Cc1cc(C)nc(NS(=O)(=O)c2ccc(NC(=O)COc3ccc(C(C)(C)C)cc3)cc2)n1 |  | inconclusive: 31.6 µM [activator, single point]
16 | COc1ccc(/C=C2/SC(=S)N(n3c(C)ccc3C)C2=O)cc1 |  | active: 25.1 µM
17 | CCCn1ccc2c(OCC(=O)NCc3ccccc3Cl)cccc2c1=O | inactive: -21.2% | 
18 | COC(=O)c1c(-c2ccc(Cl)cc2)noc1N1CCN(c2cccc(C(F)(F)F)c2)CC1 | inactive: -9.32% | 
19 | C=CCC(C)(O)c1ccc(OC)cc1 (configuration not stated) | inactive: 2.36% | 
20 | Cc1ccccc1Cn1c(=O)n(CCc2ccccc2)c(=O)c2ccccc21 | inactive: 0.955% | 
21 | Cc1c(NC(=O)/C(C#N)=C/c2c(Oc3ccccc3)nc3ccccn3c2=O)c(=O)n(-c2ccccc2)n1C |  | inconclusive: 31.6 µM [activator, single point]
22 | CN(C)c1nc(-c2ccccc2)c2cnn(Cc3ccccc3)c2n1 |  | inconclusive: 39.8 µM [inhibitor, single point]
23 | O=C(NCc1ccc(Cl)cc1)C1CCCN(c2nc3ccccc3n3cccc23)C1 (configuration not stated) | inactive: -9.97% | 

Row | Compound | max response, negative = inhibition | Potency
24 | O=C(COc1ccccc1)Nc1nonc1NC(=O)COc1ccccc1 |  | inconclusive: 39.8 µM [inhibitor, single point]
25 | Cc1ccc2nc(-c3ccc(NS(=O)(=O)c4ccc(F)cc4)cc3)sc2c1 |  | inconclusive: 39.8 µM [inhibitor, single point]
26 | O=c1cc(-c2ccccc2F)nc(-c2ccccc2F)o1 |  | active: 7.94 µM
27 | CNC(=S)Nc1ccc(Br)cc1 |  | inconclusive: 31.6 µM [inhibitor, single point]
28 | Cc1cc(C2=NNC(=NC3CC3)SC2)c(C)n1-c1ccccc1F |  | inconclusive: 31.6 µM [inhibitor, single point]
29 | CCCC1(C(=O)OCC)NC(c2ccc(N(C)C)cc2)C2C(=O)N(c3ccc4c(c3)OCCO4)C(=O)C21 (configuration not stated) |  | inconclusive: 25.1 µM [activator, single point]
30 | Cc1cc(C)cc(NC(=O)/C(C#N)=C/c2cn(CC(=O)NCc3ccco3)c3ccccc23)c1 |  | active: 15.8 µM
31 | CCCCCCCCCS(=O)(=O)N/N=C/c1cccc([N+](=O)[O-])c1 |  | inconclusive: 39.8 µM [inhibitor, single point]
32 | Cc1ccc(C#N)cc1 | inactive: -0.704% | 
33 | CCOc1ccccc1NC(=O)c1nnn(CC(=O)Nc2ccc(OC)c(OC)c2)c1N | inactive: 3.18% | 
34 | CC(c1ccco1)N(C(=O)c1ccccc1NS(=O)(=O)c1cc([N+](=O)[O-])ccc1Cl)c1ccccn1 (configuration not stated) |  | inconclusive: 25.1 µM [inhibitor, single point]
35 | O=S(=O)(Nc1ccc(N=Nc2ccc(O)c3ccccc23)cc1)c1ccccc1 |  | inconclusive: 31.6 µM [inhibitor, single point]
36 | O=C(CCCOc1ccc(Cl)cc1Cl)N1CCC2(CC1)OCCO2 |  | inconclusive: 39.8 µM [activator, single point]
37 | CCOC(=O)N1CCC(NC(=O)c2ccc3c(c2)N(Cc2ccc(F)cc2)C(=O)c2ccccc2S3(=O)=O)CC1 |  | inconclusive: 39.8 µM [activator, single point]
38 | Cc1ccc(CNC(=O)c2ccc3c(O)c(S(=O)(=O)c4ccccc4)c(=O)[nH]c3c2)cc1 | inactive: -11.8% | 
39 | COc1cc(/C=C(/C#N)c2ccc(F)cc2)ccc1Oc1ccc([N+](=O)[O-])cn1 |  | inconclusive: 39.8 µM [inhibitor, single point]
40 | CCOc1cc(C2c3c(-c4ccc(Br)cc4)n[nH]c3C(=O)N2c2ccc(Cl)cc2)ccc1O (configuration not stated) |  | inconclusive: 31.6 µM [inhibitor, single point]
41 | COc1ccc(-c2nc(-c3cccc(C(F)(F)F)c3)no2)cc1OC |  | inconclusive: 39.8 µM [activator, single point]
42 | CC(C)(C)NC[C@@H](O)COc1nsnc1N1CCOCC1 | inactive: -1.84% | 
43 | CCCCC(CC)CNC(=O)c1ccc2c(=O)n(Cc3ccc(OC)cc3)c(=O)[nH]c2c1 (configuration not stated) | inactive: 2.89% | 
44 | COc1ccc(-c2ccc(-c3cc(=O)oc4c(C(C)C)ccc(C)c34)cc2)cc1 |  | inconclusive: 4.47 µM [inhibitor, full curve]
45 | COc1cc(OC)cc(-c2nc3cc(C)ccc3o2)c1 |  | inconclusive: 25.1 µM [activator, single point]
46 | CCOC(=O)C1=C(C)NC(C)=C(C(=O)OCC)C1/C=C/c1ccccc1 |  | inconclusive: 31.6 µM [activator, single point]

Row | Compound | max response, negative = inhibition | Potency
47 | COc1ccccc1[C@@H]1C(c2cccc(Cl)c2)=NN(c2ccccc2)[C@H]1C(=O)N1CCOC1=O |  | active: 25.1 µM
48 | O=C(NCc1ccccc1Cl)c1cc2cccc3c2n1CCS3 |  | inconclusive: 39.8 µM [inhibitor, single point]
49 | CC(C)CC(C(=O)Nc1oc(-c2ccco2)c(-c2ccco2)c1C#N)N1C(=O)c2ccccc2C1=O (configuration not stated) |  | active: 31.6 µM
50 | CC1=C/C(=C/N(C)c2ccccc2)C(=O)S1 |  | inconclusive: 25.1 µM [inhibitor, single point]
51 | CCc1ccccc1NC(=O)C(=O)NCCc1sc(-c2cccc(F)c2)nc1C | inactive: -19.2% | 
52 | Cc1ccc(CNC(=O)c2ccc(-c3nc(CS(=O)(=O)c4ccc(C)cc4)c(C)o3)cc2)cc1 | inactive: -13.6% | 
53 | O=C1CCNc2ccc(-c3ccccc3)cc21 |  | active: 20 µM
54 | CCOC(=O)c1c(C)oc2c1c(C(c1cccnc1)N1CCCCC1)c(O)c1ccccc12 (configuration not stated) |  | inconclusive: 25.1 µM [activator, single point]
55 | COC(=O)N[C@@H](/C=C/c1ccccc1)C[N+](=O)[O-] | inactive: -4.76% | 
56 | Cc1ccc(S(=O)(=O)N2CCC(n3c(C)nc4cccnc43)CC2)c(C)c1 |  | inconclusive: 39.8 µM [activator, single point]
57 | CCOc1ccc(CCNC(=O)c2cc3sc(CC)cc3n2C)cc1OCC |  | inconclusive: 39.8 µM [activator, single point]
58 | O=C(CSc1nc2c(c(=O)[nH]1)CN(Cc1ccc3c(c1)OCO3)CC2)Nc1ccc(F)c(F)c1 | inactive: 2.28% | 
59 | COc1ccc(-n2nnc(-c3nc(-c4cccs4)no3)c2N)cc1 | inactive: 9.55% | 
60 | CCc1ccc(NC(=O)Cn2cnc3sc(C)c(S(=O)(=O)N4CCN(c5ccccc5OC)CC4)c3c2=O)cc1 |  | inconclusive: 6.31 µM [activator, single point]
61 | CNC(=O)c1c(NC(NC(=O)c2ccco2)C(=O)c2ccc(Cl)cc2)sc2c1CCCC2 (configuration not stated) |  | inconclusive: 39.8 µM [activator, single point]
62 | CCOC(=O)Cn1c(CN2CCN(c3cccc(Cl)c3)CC2)nc2c1c(=O)[nH]c(=O)n2C |  | inconclusive: 39.8 µM [activator, single point]
63 | Cc1ccc(NC(=O)CS(=O)CC(=O)NC(C)CCc2ccco2)cc1Cl (configuration not stated) |  | inconclusive: 31.6 µM [inhibitor, single point]
64 | c1ccc(CCCNc2nnnc3ccccc23)cc1 | inactive: -5.13% | 
65 | COCCCn1c(SCC(=O)Nc2ccc(NC(=O)c3ccco3)c(OC)c2)nc2ccccc2c1=O |  | inconclusive: 15.8 µM [activator, partial curve]
66 | CC#C[C@]1(O)CC[C@H]2C3CCC4=CC(=O)CCC4=C3[C@@H](c3ccc(N(C)C)cc3)C[C@@]21C (some centres not stated) |  | inconclusive: 39.8 µM [activator, single point]
67 | C=CCNc1nc(N)c(C(=C(C#N)C#N)c2ccc(Br)cc2)s1 |  | inconclusive: 39.8 µM [activator, single point]
